In all, about 320,000 compounds went through this assay and about 7,600 (2.4%) were called active. This list was built around the results that the source calls inconclusive (neither active nor inactive); the mix of calls is not that of the screen. Calls follow the shape of the dose curve; as a rule, active = well fitted activation curve with a large enough effect; inconclusive = small, poorly fitted or top-dose-only effect; inactive = no such curve, though single readings can be large or run the other way. Potencies of inconclusive entries are left out as doubtful fits.
experiment: qHTS Assay for NPC1 Promoter Activators; conditions: Huh7 NPC1 promoter luciferase reporter, 24 h; series mostly up to 9.22 µM; activation: at the top concentration; also: nearly all actives have a fitted effect of over 60% in size;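 as to activation: reporter is driven by a mutant NPC1 promoter; % of control where 0% means no effect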
Outline: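 Cells: Huh7 expressing luciferase under the NPC1 promoter, 1500/well. Seeded 2 h, compound added, incubated 24 h at 37 °C. Luciferase reagent, 10 min ambient, then luminescence.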
Potency is read from the fitted curve at half-maximal effect; tags tell the direction and shape of the fitted curve.

Structure (SMILES) | activation | Potency
COc1ccccc1-c1sc2ccccc2c1-c1ccc(C(C)=O)cc1 | inactive: 17.3% | –
CC(=O)c1ccc(NC(=O)/C(Cl)=C/c2ccccc2)cc1 | – | active: 3.55 µM
O=[N+]([O-])c1ccccc1COc1ccc(Cl)c2cccnc12 | – | active: 0.631 µM
Nc1ccc(N2CCCCCC2)cc1 | – | inconclusive [activator, single point]
COc1ccccc1-c1noc(-c2cc(OC)c(OC)c(OC)c2)n1 | inactive: -0.112% | –
Cn1ccnc1SCC(=O)c1ccc2ccccc2c1 | – | active: 2.24 µM
CC12C(=O)N(Cc3ccco3)C(=O)C1C1c3ccccc3C2c2ccccc21 (centres undefined) | inactive: -0.619% | –
Cc1nn2c(nc1=O)SCC(c1ccccc1)=N2 | – | active: 2.24 µM
O=[N+]([O-])c1cccc(-c2ccc(SCc3ccccn3)nn2)c1 | – | inconclusive [activator, single point]
Cc1ccc(SCCSc2nc(C)cc(=O)[nH]2)cc1 | – | inconclusive [activator, partial curve]
O=C(CSC(=S)N1CCCC1)NCC(=O)Nc1ccccc1Br | inactive: 1.62% | –
Cc1c(/C=C/C(=O)c2ccccc2O)cnn1C | – | active: 3.55 µM
CN(C)C(=O)N1CCCC(C(=O)NCCc2ccccc2)C1 (centres undefined) | – | inconclusive [activator, partial curve]
COc1ccccc1Oc1ncnc2c1cnn2-c1ccccc1 | – | inconclusive [activator, partial curve]
CC(C)(C)NC(=O)Nc1ccc(Br)cc1 | – | inconclusive [activator, partial curve]
COc1ccccc1C(=O)OCc1nc(N)nc(Nc2ccccc2C)n1 | – | inconclusive [activator, single point]
CCc1nnc2c3cnn(-c4ccccc4)c3ncn12 | – | inconclusive [activator, partial curve]
O=C(CSc1nc2cc(Cl)ccc2s1)c1cc2ccccc2o1 | inactive: -2.15% | –
CCCCN1C=CC(=C2C(=O)c3ccccc3C2=O)C=C1 | – | inconclusive [activator, partial curve]
COCCN1CCN(C(=O)c2ccc3oc(CCCc4ccccc4)nc3c2)CC1 | – | inconclusive [activator, partial curve]
Oc1oc(-c2ccccc2)nc1C=Nc1ccccc1 | inactive: 21.5% | –
Cc1ccc(OCCn2c(=O)sc3ccccc32)cc1 | – | active: 3.55 µM
CCCCNC(=S)N/N=C/c1ccccc1F | – | inconclusive [activator, partial curve]
Cc1cc(C(=O)COc2cccc3cccnc23)c(C)n1C | – | inconclusive [activator, single point]
CCOC(=O)c1sc(NC(=S)NC(=O)c2ccco2)nc1C | inactive: 16.5% | –
Cc1cccc(C)c1OCC(O)CNS(=O)(=O)c1ccccc1C(=O)N1CCCCC1 (centres undefined) | inactive: -0.283% | –
O=C(Nc1cccc(-c2nc3ccccc3[nH]2)c1)c1ccc(C(=O)Nc2cccc(-c3nc4ccccc4[nH]3)c2)cc1 | – | inconclusive [activator, single point]

Structure (SMILES) | activation | Potency
Cn1c(CCNC(=O)c2ccco2)nc2cc(NC(=O)NC3CCCCC3)ccc21 | – | inconclusive [activator, single point]
Cc1ccc(C)c(CSC2=NCCN2C(=O)c2cccs2)c1 | inactive: -0.37% | –
COCCCNC(=O)c1cccn2c(=O)c3cc4ccccc4cc3nc12 | inactive: 27.1% | –
c1ccc(-c2ccc(-c3ccccn3)s2)nc1 | – | inconclusive [activator, single point]
COC(=O)CCCn1c(C)cc(C(=O)CCl)c1C | inactive: -5.61% | –
Cc1nn(-c2ccccc2)c(N)c1N=Nc1cccnc1 | – | inconclusive [activator, single point]
CCSc1ccc(-c2cccc([N+](=O)[O-])c2)nn1 | – | inconclusive [activator, single point]
O=C(/C=C/c1ccc(OCCCF)cc1)N1CCOCC1 | – | inconclusive [activator, partial curve]
N#C/C(=N\Nc1ccc([N+](=O)[O-])cc1)C(=N)N1CCOCC1 | – | inconclusive [activator, partial curve]
CCc1ccc(C(=O)COC(=O)c2ccc(-c3nnc(-c4ccccc4)o3)cc2)cc1 | – | active: 0.891 µM
COc1cccc(CN=C2Nc3ccccc3CS2)c1 | – | active: 2.82 µM
Cc1ccc2nc(NC(=O)COC(=O)c3ccc(Br)o3)sc2c1 | – | inconclusive [activator, partial curve]
O=C1CCC/C(=N/NC(=O)c2sc3ccccc3c2Cl)C1 | – | inconclusive [activator, single point]
Cc1oc(C(C)(C)C)cc1C(=O)Nc1ccc(C(=O)O)cc1 | – | inconclusive [activator, partial curve]
O=C1c2ccccc2NC(c2ccccc2O)N1O (centres undefined) | inactive: -0.615% | –
CCCCNC(=O)c1nnn(-c2ccccc2)c1N | – | inconclusive [activator, partial curve]
Cc1ccc2nc(-c3ccc(N4C(=NC(=O)CCC(=O)O)SC5CS(=O)(=O)CC54)cc3)sc2c1 (centres undefined) | – | inconclusive [activator, partial curve]
CCCCNC(=O)CNC(=O)c1nn(-c2ccc(OC)cc2)c(=O)c2ccccc12 | inactive: -0.414% | –
NC(=O)N/N=C/c1ccc2cccc(OCc3ccccc3)c2n1 | inactive: -1.09% | –
CCOc1ccc(N(CC(=O)NC2CCCC2)C(=O)CCC(=O)Nc2nccs2)cc1 | – | inconclusive [activator, single point]
COc1ccccc1-c1nnc(NC(=O)c2ccc3ncsc3c2)o1 | – | inconclusive [activator, partial curve]
Cc1nc(C(C)NC(=O)CCc2nnc(CCCc3ccccc3)o2)c(C)s1 (centres undefined) | – | inconclusive [activator, partial curve]
Cc1ccc(C(=O)Nc2ccc3ccccc3c2)cc1 | – | active: 0.1 µM
Cc1nn2c(-c3ccc(F)cc3)ccnc2c1Cl | inactive: -0.175% | –
O=C1NC(=O)/C(=C/c2ccc3nccnc3c2)S1 | – | inconclusive [activator, partial curve]
COc1ccc(C(=O)Nc2c(C(C)(C)C)nn(C)c2C(C)(C)C)cc1 | inactive: -0.236% | –
CS(=O)(=O)c1cccc(C(=O)Nc2ccc3c(c2)OCCCO3)c1 | – | inconclusive [activator, partial curve]

Structure (SMILES) | activation | Potency
CCCCOc1c(Cl)cc(C(=O)N(C)CC(=O)Nc2ccc(N3CCOCC3)cc2)cc1OCC | inactive: -2.31% | –
Cc1cccnc1NC(=O)Cn1nc(-c2ccccc2)oc1=S | – | active: 3.16 µM
Cc1nc2ccc(-c3nc4cc(N)ccc4o3)cc2[nH]1 | – | active: 0.398 µM
N#Cc1cccc(NCC(=O)Nc2ccc3c(c2)OCCO3)c1 | – | active: 0.631 µM
Cc1nnc(NC(=O)Nc2cccc(Cl)c2)s1 | – | inconclusive [activator, single point]
COc1ccc2nc(SCC(=O)c3ccco3)[nH]c2c1 | – | active: 2.24 µM
Cc1cc(N2CCOCC2)nc2ccc(NC(=O)CCC(=O)N3CCC(C)CC3)cc12 | – | inconclusive [activator, partial curve]
O=C(CSc1cn[nH]n1)Nc1nc2ccccc2s1 | – | inconclusive [activator, partial curve]
COc1ccc(-c2csc(N=C(N)N)n2)cc1 | – | inconclusive [activator, partial curve]
Brc1ccc(-c2nc(-c3ccncc3)no2)o1 | – | inconclusive [activator, single point]
COc1ccc(-c2cc(C(=O)N3CCCC3)no2)cc1OC | – | inconclusive [activator, single point]
CC(C)SCc1nc2ccccc2[nH]1 | inactive: 2.81% | –
c1ccc2c(c1)nc(Nc1ccc3c(c1)OCO3)c1nnnn12 | – | inconclusive [activator, partial curve]
O=[N+]([O-])CC(=Nc1ccc(Cl)cc1)N/N=C\c1oc(O)c2ccccc12 | – | inconclusive [activator, partial curve]
Cc1ccccc1C=O | inactive: -0.637% | –
CCN(CC)S(=O)(=O)c1ccc2oc(Nc3ccccc3)nc2c1 | – | inconclusive [activator, partial curve]
CCCN(Cc1ccc(C)cc1)C(=O)c1ccc(CNS(=O)(=O)c2ccc(C(C)=O)cc2)cc1 | – | inconclusive [activator, single point]
CCCCn1cnc2c([nH]c3cc(OC)ccc32)c1=O | – | inconclusive [activator, partial curve]
COCCN(C(=O)CNC(=O)c1ccco1)C(C(=O)NC1CCCC1)c1ccc(OC)cc1 (centres undefined) | inactive: 2.23% | –
COc1cc2cc(CN(Cc3cccnc3)C(=O)Nc3ccccc3F)c(=O)[nH]c2cc1OC | inactive: -6.15% | –
O=C(Nc1cc2c(cc1Cl)OCCCO2)c1ccc(F)cc1 | – | inconclusive [activator, single point]
COC(=O)C1C(=O)C=C(Nc2ccc(F)cc2F)CC1c1ccccc1 (centres undefined) | inactive: 15.2% | –
COc1cc(NC(=O)c2ccccc2Cl)ccc1NC(=O)c1cccs1 | – | inconclusive [activator, partial curve]
CC1(C)Cc2c(sc3nc(-c4cccs4)n(N)c(=O)c23)CO1 | – | inconclusive [activator, partial curve]
Cc1cc(NC(=O)/C=C/c2ccccc2)no1 | – | inconclusive [activator, single point]
